IC50 is the fitted dose that halves viability relative to control wells, and lower means more sensitive; fits outside the tested doses are given as limits. AUC is the area under the same curve over the 256-fold range up to the top dose, as a fraction; values near 1 show little effect. For part of these data: A top dose marked as inferred comes from the curve model; the source does not state it. For part of these data: An entry number marks a drug with two screens in the source, which often give different values.
Tests used:
Experiment in all cases: Viability of human cancer cell lines after 72 h of drug (GDSC screen)
NSC-207895 = compound: CN1CCN(c2ccc([N+](=O)[O-])c3no[n+]([O-])c23)CC1 [NSC-207895]; settings: top dose 20 µM; top dose inferred
Protocol: (§1)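 Human cancer cell lines in 384-well plates, medium with 10% serum, drug for 72 h over a 256-fold dose range (nine 2-fold or five 4-fold steps up to the top dose). Adherent lines were fixed and stained with the nucleic acid dye Syto60, suspension lines read with resazurin; signal relative to control wells, capped at 0 and 100%. One two-parameter sigmoid per drug and line, fitted in a mixed model over all curves with the slope shared within a line.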

Belinostat = compound: O=C(/C=C/c1cccc(S(=O)(=O)Nc2ccccc2)c1)NO [Belinostat]; settings: top dose 20 µM; top dose inferred
Protocol: as §1

JNJ-26854165 = compound: c1ccc2c(CCNc3ccc(Nc4ccncc4)cc3)c[nH]c2c1 [JNJ-26854165]; settings: top dose 10 µM
Protocol: as §1

OSI-906 = compound: C[C@]1(O)C[C@@H](c2nc(-c3ccc4ccc(-c5ccccc5)nc4c3)c3c(N)nccn32)C1 [OSI-906]; settings: top dose 2.56 µM; top dose inferred
Protocol: as §1

JNK Inhibitor VIII = compound: CCOc1nc(NC(=O)Cc2cc(OC)ccc2OC)cc(N)c1C#N [JNK Inhibitor VIII]; settings: top dose 10 µM; top dose inferred
Protocol: as §1

JQ1 = compound: Cc1sc2c(c1C)C(c1ccc(Cl)cc1)=N[C@@H](CC(=O)OC(C)(C)C)c1nnc(C)n1-2 [JQ1]
Protocol: as §1

FTI-277 = compound: COC(=O)[C@H](CCSC)NC(=O)c1ccc(NC[C@@H](N)CS)cc1-c1ccccc1 [FTI-277]; settings: top dose 1.024 µM; top dose inferred
Protocol: as §1

Docetaxel = compound: CC(=O)O[C@@]12CO[C@@H]1C[C@H](O)[C@@]1(C)C(=O)[C@H](O)C3=C(C)[C@@H](OC(=O)[C@H](O)[C@@H](NC(=O)OC(C)(C)C)c4ccccc4)C[C@@](O)([C@@H](OC(=O)c4ccccc4)[C@H]21)C3(C)C [Docetaxel]; settings: top dose 0.0125 µM
Protocol: as §1

SB-715992 = compound: Cc1ccc(C(=O)N(CCCN)[C@@H](c2nc3cc(Cl)ccc3c(=O)n2Cc2ccccc2)C(C)C)cc1 [SB-715992]; settings: top dose 0.128 µM; top dose inferred
Protocol: as §1

AMG-706 = compound: CC1(C)CNc2cc(NC(=O)c3cccnc3NCc3ccncc3)ccc21 [AMG-706]; settings: top dose 2 µM; top dose inferred
Protocol: as §1

YM155 = compound: COCC[n+]1c2c(n(Cc3cnccn3)c1C)C(=O)c1ccccc1C2=O [YM155]; settings: top dose 5.12 µM
Protocol: as §1

[1] = top dose 1 µM, screen: GDSC drug entry 1218, top dose inferred
[2] = top dose 2.56 µM, screen: GDSC drug entry 163

| Cell Line | AUC (NSC-207895) | IC50 (NSC-207895) [nM] | AUC (Belinostat) | IC50 (Belinostat) [nM] | AUC (JNJ-26854165) | AUC (OSI-906) | IC50 (OSI-906) [nM] | AUC (JNK Inhibitor VIII) | IC50 (JNK Inhibitor VIII) [nM] | AUC (JQ1; [1]) | IC50 (JQ1; [1]) [nM] | AUC (JQ1; [2]) | IC50 (JQ1; [2]) [nM] | AUC (FTI-277) | IC50 (FTI-277) [nM] | AUC (Docetaxel) | IC50 (Docetaxel) [nM] | AUC (SB-715992) | IC50 (SB-715992) [nM] | AUC (AMG-706) | IC50 (AMG-706) [nM] | IC50 (JNJ-26854165) [nM] | AUC (YM155) | IC50 (YM155) [nM] |
| --- | --- | --- | --- | --- | --- | --- | --- | --- | --- | --- | --- | --- | --- | --- | --- | --- | --- | --- | --- | --- | --- | --- | --- | --- |
| T98G (glioma, adherent) | 0.974 | > 20000 | 0.74 | 5680 | 0.834 | 0.99 | > 2560 | 0.986 | > 10000 | 0.989 | > 1000 | 0.765 | 870 | 0.987 | > 1020 | 0.615 | 1.58 | 0.934 | > 128 | 0.978 | > 2000 | – | – | – |
| H290 (mesothelioma, adherent) | – | – | – | – | 0.901 | 0.969 | > 2560 | 0.989 | > 10000 | 0.976 | > 1000 | 0.911 | > 2560 | 0.97 | > 1020 | 0.806 | 5.7 | 0.97 | > 128 | 0.987 | > 2000 | > 10000 | – | – |
| NCI-H1688 (small cell lung carcinoma, adherent) | 0.962 | > 20000 | 0.307 | 337 | 0.875 | 0.96 | > 2560 | 0.813 | 6130 | 0.977 | > 1000 | 0.718 | 712 | 0.986 | > 1020 | 0.92 | > 12.5 | 0.945 | > 128 | 0.901 | > 2000 | > 10000 | – | – |
| H4 (glioma, adherent) | 0.968 | > 20000 | – | – | 0.581 | 0.983 | > 2560 | 0.986 | > 10000 | 0.985 | > 1000 | 0.592 | 285 | 0.982 | > 1020 | 0.686 | 2.57 | 0.613 | 16.3 | 0.982 | > 2000 | 1040 | – | – |
| STS-0421 (soft tissue, adherent) | – | – | – | – | 0.821 | 0.909 | > 2560 | 0.908 | > 10000 | 0.977 | > 1000 | 0.769 | 1130 | 0.975 | > 1020 | 0.726 | 3.86 | 0.623 | 18.5 | 0.983 | > 2000 | 7100 | – | – |
| RERF-LC-Sq1 (lung squamous cell carcinoma, adherent) | 0.969 | > 20000 | 0.572 | 2160 | 0.87 | 0.979 | > 2560 | 0.954 | > 10000 | 0.975 | > 1000 | 0.947 | > 2560 | – | – | 0.841 | > 12.5 | 0.932 | > 128 | 0.935 | > 2000 | > 10000 | 0.057 | < 20 |
| SJRH30 (rhabdomyosarcoma, adherent) | 0.876 | > 20000 | 0.456 | 943 | 0.858 | 0.688 | 549 | 0.959 | > 10000 | 0.985 | > 1000 | 0.716 | 670 | – | – | 0.655 | 2.13 | 0.891 | > 128 | 0.973 | > 2000 | 8700 | 0.035 | < 20 |
| HCC202 (breast, adherent) | 0.946 | > 20000 | 0.33 | 346 | 0.952 | 0.921 | > 2560 | 0.979 | > 10000 | 0.963 | > 1000 | – | – | – | – | 0.97 | > 12.5 | 0.917 | > 128 | 0.96 | > 2000 | > 10000 | 0.156 | < 20 |
| Caov-4 (ovary, adherent) | – | – | – | – | 0.956 | 0.9 | > 2560 | 0.98 | > 10000 | 0.975 | > 1000 | 0.937 | > 2560 | 0.969 | > 1020 | 0.968 | > 12.5 | 0.894 | > 128 | 0.977 | > 2000 | > 10000 | – | – |
| NCI-H630 (large intestine, adherent) | 0.96 | > 20000 | 0.486 | 1140 | 0.986 | – | – | 0.986 | > 10000 | 0.987 | > 1000 | 0.707 | 643 | 0.976 | > 1020 | 0.973 | > 12.5 | 0.959 | > 128 | 0.987 | > 2000 | > 10000 | 0.828 | 3470 |
| SCC90 (head and neck, adherent) | – | – | – | – | 0.938 | 0.892 | > 2560 | 0.98 | > 10000 | 0.978 | > 1000 | 0.768 | 1380 | 0.981 | > 1020 | 0.823 | 12 | 0.838 | > 128 | 0.974 | > 2000 | > 10000 | – | – |
| Hs746T (stomach, adherent) | 0.618 | 2960 | 0.349 | 411 | 0.805 | – | – | 0.936 | > 10000 | 0.977 | > 1000 | 0.961 | > 2560 | 0.981 | > 1020 | 0.875 | > 12.5 | 0.788 | 78.7 | 0.917 | > 2000 | 7300 | 0.044 | < 20 |
| SNG-M (endometrium, adherent) | – | – | – | – | 0.899 | 0.972 | > 2560 | 0.977 | > 10000 | 0.97 | > 1000 | 0.758 | 869 | 0.969 | > 1020 | 0.619 | 1.65 | 0.516 | 8.82 | 0.986 | > 2000 | > 10000 | – | – |

Source: the supplement of paper PMC4967469
